Measured values published in PubChem BioAssay AID1508623 (National Center for Advancing Translational Sciences (NCATS), 2021).
Out of some 48,000 compounds screened, about 450 (0.94%) were called active. Inconclusive results (about 19%) are left out. Calls come from the whole dose curve; as a rule, active = well fitted inhibition curve with a large enough effect; inconclusive = small, poorly fitted or top-dose-only effect; inactive = no such curve, though single readings can be large or run the other way. This is one part of the list.

experiment: Primary qHTS for Identification of Small Molecule Inhibitors of Huntingtin Promoter Activity; details: HEK293 HTT promoter firefly luciferase reporter (activity 0% = vehicle and -100% = no light), 24 h; series mostly up to 57.5 µM; activity change, negative = inhibition: at the top concentration; note: nearly all actives have a fitted effect of over 50% in size
Procedure, shortened: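 Quantitative HTS used concentration series of up to 57.5 uM final on HEK293 luciferase reporter cells, 24 h at 37 degrees C. Readout was Dual-Glo firefly luminescence.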

| Structure (SMILES) | activity change, negative = inhibition |
| --- | --- |
| CCc1nonc1NC(=O)c1oc2cc(C)c(C)cc2c1C | inactive: 38.5% |
| O=S(=O)(NCc1ccc(F)cc1)c1ccc2[nH]c3c(c2c1)CCCC3 | inactive: -12.8% |
| COc1ccc(C(=O)Oc2ccc(C(c3c(C)[nH][nH]c3=O)c3c(C)[nH][nH]c3=O)cc2)cc1 | inactive: -6.65% [at 11.5 µM] |
| COc1ccc(NC(=O)C2Cc3ccccc3CN2S(=O)(=O)c2ccccc2)cc1OC (stereo not drawn) | inactive: -13.7% |
| CCc1ccccc1NC(=O)CCCn1c(=O)c2cccn2c2ccccc21 | inactive: -4.74% |
| COc1cccc(-n2c(SCC(N)=O)nc3c(oc4ccccc43)c2=O)c1 | inactive: -21.3% |
| Cc1cc(S(=O)(=O)Nc2ccc3oc4c(c3c2)CCCC4)ccc1Cl | inactive: 7.45% [at 11.5 µM] |
| CCCc1nn2c(=O)cc(COC(=O)c3ccc(NC(=O)COc4ccccc4F)cc3)nc2s1 | inactive: -16.3% |
| CCOc1ccc(CCNCc2c(C(=O)O)c(C)n(Cc3ccccc3F)c2C)cc1 | inactive: -12.4% |
| Cc1ccc(S(=O)(=O)N2CCc3cc(C(=O)Nc4ccc(Cl)cc4C)ccc32)cc1 | inactive: -7.1% |
| CCOc1ccc(NC(=O)[C@@H](c2ccccc2)N2Cc3ccccc3C2=O)cc1 | inactive: -10% |
| COc1ccc(NS(=O)(=O)c2ccc3c(c2)[C@H]2C=CC[C@H]2[C@@H](c2ccc(C(=O)O)cc2)N3)cc1 | inactive: -2.86% |
| Cc1noc(-c2ccc(-c3noc(-c4ccc([N+](=O)[O-])c(C)c4)n3)cc2)n1 | inactive: -7.29% [at 11.5 µM] |
| CCN(CC)c1ccc(NC(=O)CCc2c(C)nc3ncnn3c2C)c(C)c1 | inactive: -12.9% |
| Cc1cccn2c(=O)c(C(=O)N3CCN(c4ccc(Cl)cc4)CC3)cnc12 | inactive: 0.442% |
| CCOC(=O)c1cc2c(=O)n3ccccc3nc2n(Cc2ccco2)c1=NC(=O)c1cccc(Br)c1 | inactive: -24.8% |
| Cc1ccc(-n2nnnc2CNC(=O)C2CC(=O)N(c3ccccc3)C2)cc1C (stereo not drawn) | inactive: 1.39% |
| COc1ccc(Cl)cc1NC(=O)Cn1nnc2sc(-c3ccccc3)cc2c1=O | inactive: 3.46% |
| Fc1ccccc1N1CCN(c2ncnc3c2nc2n3CCCC2)CC1 | inactive: -13.7% |
| COc1ccc(CCNC(=O)CCCCn2c(=O)c3ccccc3n(Cc3ccccc3)c2=O)cc1OC | inactive: -12.3% |
| CN(C)c1ccc(NC(=O)Cn2cc(S(=O)(=O)Cc3ccccc3Cl)c3ccccc32)cc1 | inactive: -12.3% |
| CCn1cc2nc(SCC(=O)Nc3ccc(OC)cc3OC)n(Cc3ccc(Cl)cc3)c(=O)c2n1 | inactive: -27.7% |
| Nc1cc(C(Cl)=C(Cl)Cl)c(S(N)(=O)=O)cc1S(N)(=O)=O | inactive |
| CCCCN(C)c1nnc(NC(=O)Nc2ccc(Br)c(C)c2)s1 | inactive: -16.3% |

| Structure (SMILES) | activity change, negative = inhibition |
| --- | --- |
| CCOc1ccc(NC(=O)Cn2cc(C(=O)c3ccc(C)cc3)c(=O)c3cc4c(cc32)OCO4)cc1 | inactive: -13.5% |
| CCc1ccc(CN(Cc2ccco2)C(=O)c2cc(-c3ccc(C)c(F)c3)on2)cc1 | inactive: -12.7% |
| CCOCCc1nn2c(=O)cc(COC(=O)c3ccccc3NC(=O)c3ccc(C)cc3)nc2s1 | inactive: 0% |
| CCn1c2c(c(=O)n3ncc(C(=O)Nc4ccc(Cl)cc4C)c13)CN(Cc1ccc(OC)cc1)CC2 | inactive: -21.5% |
| Brc1cccc(-c2nnn3c2nc(N2CCCCC2)c2ccccc23)c1 | inactive: -0.549% |
| O=C(CNS(=O)(=O)c1cccs1)N1CCN(c2ccccc2F)CC1 | inactive: 28.5% |
| CCCn1c(=O)c2sccc2n2c(CCCC(=O)NC3CCCCC3)nnc12 | inactive: -11.7% |
| Cc1ccccc1Cn1c(C)c(CNCCCc2ccccc2)c(C(=O)O)c1C | inactive: -20.7% |
| COc1ccc(C2C=C(c3ccc(Cl)cc3)Nc3nc(NC(=O)CCC(=O)O)nn32)cc1 (stereo not drawn) | inactive: -4.36% |
| Cc1ccccc1Nc1c(-c2c[nH]c3ccccc23)nc2cccc(C)n12 | inactive: 22% |
| O=c1c2sc3ccccc3c2n(Cc2ccc(Cl)cc2)c(=O)n1Cc1ccco1 | inactive: -1.19% |
| COc1ccc(-c2csc3nc(-c4ccc(C)cc4)oc(=O)c23)cc1OC | inactive: 14.1% |
| COc1ccc(CCN(C)CCCC(C#N)(c2cc(OC)c(OC)c(OC)c2)C(C)C)cc1OC (stereo not drawn) | inactive: -10% |
| CCCOc1cccc(C(=O)N2CCCCC2CCN2CCCCC2)c1 (stereo not drawn) | inactive: -4.72% |
| CCC(C)NC(=O)Cn1c(=O)c2cccn2c2ccc(F)cc21 (stereo not drawn) | inactive: 0.853% |
| O=C(Nc1ccc(F)cc1Cl)c1cnc(N2CCOCC2)c2ccccc12 | inactive: 6.58% |
| COc1cccc(CNC(=O)c2cc(=O)[nH]c3ccc(S(=O)(=O)N4CCCC4)cc23)c1 | inactive: -14.3% |
| COc1ccc(CNC(=O)CC2Oc3ccc(C)cc3NC2=O)cc1 (stereo not drawn) | inactive: -1.33% |
| COc1cccc(CC(=O)Nc2ccc3nc(Nc4cccc(C(F)(F)F)c4)cc(C)c3c2)c1 | inactive: -29.6% |
| COC(=O)c1cc2oc3ccccc3c2n1CC(=O)Nc1ccc(F)c(Cl)c1 | inactive: -22.7% |
| COc1ccc(CCNc2nc(SCc3cccc(Cl)c3)nc3ccccc23)cc1OC | inactive: -9.27% |
| Cc1cccc(Cn2c(CN3CCCC(C)C3)nc3c2c(=O)n(C)c(=O)n3C)c1 (stereo not drawn) | inactive: -2.71% |
| COCCCNC(=O)c1ccc(-n2c(-c3ccccc3)cc3c2CCCCC3)cc1 | inactive: 9.64% |
| Clc1ccc2nc(-c3cccs3)c(Nc3ccc4c(c3)OCCO4)n2c1 | inactive: 2.18% |
